This passage reports TGI and GI50 results from PubChem BioAssay (NCI).

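Briefly, cells in 96-well plates were exposed to five compound concentrations for 48 h, and endpoints were estimated by linear interpolation. Here, GI50 denotes the concentration required for 50% inhibition of growth. TGI marks complete inhibition of growth.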

The test system of the assay is NCI-H322M lung. Description: inhibition of tumour cell growth, NCI panel, 48 h.
In turn, `CC(=O)OC1CC2CCC1(C)C2(C)C` (stereo unspecified) yielded a TGI above 100 µM.

For `N#Cc1c(-c2ccccc2)/c(=C\O)c(=O)n2c1nc1ccccc12`, the TGI is above 100 µM.

For `CC[N+]1(C)CCC(O)(c2ccc(Cl)cc2)C(C(=O)c2ccc(Cl)cc2)C1` (stereo unspecified), the TGI was 57.2 µM.

On to `COCCOC(=O)C1=C(C)NC2=C(C(=O)CC(c3ccccc3OC)C2)C1c1cccc(O)c1` (stereo unspecified), for which the GI50 was 8.74 µM and the TGI is above 100 µM.

With `CCc1n[nH]c(=O)n1N1C(=O)C2CC=CCC2C1=O` (stereo unspecified), the TGI was above 100 µM.

The compound `CC(=O)C1=C(N=[N+]=[N-])c2cccc3cccc(c23)C1=O` came in with a TGI of 41.9 µM.

`N#CCC(=O)Nn1c(CC#N)nnc1Cc1ccccc1` displayed a TGI above 100 µM.

Turning to `COc1ccc(C2SCC(=O)N2c2ccc(-c3ccc(-n4c(-c5ccccc5)nc5ccccc5c4=O)cc3)cc2)cc1` (stereo unspecified), the TGI is above 100 µM.

With `COc1cc(OC)c2c(c1OC)OCC(Cc1ccc(O)cc1)C2=O` (stereo unspecified), the TGI was above 25 µM.

For the compound `Cc1c(C(=O)/C=C/c2ccc(Cl)cc2)[n+](=O)c2ccccc2n1[O-]`, the TGI came to 27.6 µM.

As for `COc1ccc2c3c1C(=O)CCC3CO2` (stereo unspecified), the TGI is above 100 µM.

With `CCCCCCCCCCCCCCCc1cc(O)ccc1N`, the GI50 is above 67.1 µM and the TGI was above 100 µM.

On to `CCC[CH2][Sn]([CH2]CCC)([O]C(=O)c1cccc(F)c1)[O]C(=O)c1cccc(F)c1`, for which the GI50 was 0.929 µM and the TGI turned out to be 2.18 µM.

With `O=C1c2ccccc2-c2nc(-c3cccnc3)cc3c2c1nc1ccccc13`, the TGI was above 100 µM.

`NNC(=O)CNC(=O)CSc1nnc(COc2ccc(Cl)cc2)n1-c1ccccc1` came in with a TGI above 100 µM.

As to `OCCN(CCO)c1ccc2c(C(F)(F)F)cc(C(F)(F)F)nc2n1`, the TGI is above 100 µM.

`Cc1ccc(C(=O)C(C)N)cc1` (stereo unspecified) displayed a TGI above 100 µM.

For the compound `COc1ccc2c(c1)c(C1(c3cn(C)c4ccc(OC)cc34)C(=O)Nc3ccc(F)cc31)cn2C`, the GI50 is 7.14 µM and the TGI is above 100 µM.

For the compound `O=C(OCCOCBr)c1ccccc1`, the TGI is above 100 µM.

With `CC(=O)O[C@H]1CC[C@]2(C)[C@H]3CC[C@@H]4[C@H]5[C@H](C(C)C)CC[C@]5(C(=O)OCC(CO)(CO)N=C(N)N)CC[C@@]4(C)[C@]3(C)CC[C@H]2C1(C)C`, the GI50 was 1.51 µM and the TGI turned out to be 2.84 µM.

As to `O=P(O)(O)C(O)/C=C/c1ccccc1` (stereo unspecified), the TGI is above 100 µM.

The compound `CCSC1=N/C(=C\c2ccccc2O)C(Nc2ccc(C)cc2)=N1` returned a TGI above 100 µM.

In the case of `c1ccc(N=C2SC(=NNc3ccccc3)SC2=Nc2ccccc2)cc1`, the TGI is above 100 µM.

Regarding `Cc1ccc(/C=C/C(=O)c2c([O-])on[n+]2-c2ccccc2)cc1`, the TGI was determined as 19.4 µM.

Regarding `COC(=O)NCCc1[nH]nc2c1C(=O)C=C(Nc1ccccc1)C2=O`, the TGI is above 100 µM.

In turn, `CCCN1C(=O)CCC2=C1CCc1c2ccc(Cl)c1Cl` yielded a TGI above 100 µM.

Take `CC(=O)OC1COC(S[As](C)C)C(OC(C)=O)C1OC(C)=O` (stereo unspecified): the GI50 is 6.57 µM and the TGI was 19.6 µM.

In the case of `CCOC(=O)/N=C(\N)SCc1ccccc1`, the TGI is above 100 µM.

Compound `CCCCCCCCCCCCCCCC(=O)OCC(O)C1OC(=O)C(O)=C1O` (stereo unspecified) returned a TGI of 77.6 µM.

Turning to `CCOc1ccc2c(c1)/C(=C(\C(Cl)=C(Cl)Cl)[N+](=O)[O-])N2`, the TGI was above 100 µM.

In turn, `O=C(Cn1nc(Br)c(Br)c1Br)c1ccccc1` registered a TGI above 100 µM.

With `CC(C)(C)c1ccc([I+]c2ccc(C(C)(C)C)cc2)cc1`, the GI50 is 4.08 µM and the TGI came to 15 µM.

In turn, `COC(=O)c1ccccc1NC(=O)/C(=N\NC(C)(C)C)C(C#N)c1nc(-c2ccc([N+](=O)[O-])cc2)cs1` (stereo unspecified) displayed a TGI above 100 µM.

As for `O=C(Nc1cc(C(F)(F)F)ccc1F)Nc1n[nH]c2ccccc12`, the GI50 was above 100 µM and the TGI was above 100 µM.

`Cc1ccc2c(c1)NC(=O)CCSSCCC(=O)N2` displayed a TGI above 100 µM.

Regarding `C=CC1CC12C(=O)C1OC2(C)C2C(=O)c3c(ccc4c3ccc3ccccc34)C(=O)C12` (stereo unspecified), the GI50 is 71.3 µM and the TGI was above 100 µM.

As for `CC1CCCC2=C1C(c1ccc(Cl)cc1)n1c(s/c(=C\c3ccc(Cl)cc3)c1=O)=N2` (stereo unspecified), the TGI is above 100 µM.

With `O=C(O)CSCC(=O)Nc1ccc2cccc3c2c1CC3`, the TGI is above 100 µM.

`O=C1CCCC/C1=C/C=C/c1ccccc1` gave a TGI above 100 µM.

Turning to `CC(C)(C)c1ccc(CN2CCN(C(c3ccccc3)c3ccc(Cl)cc3)CC2)cc1` (stereo unspecified), the TGI is above 100 µM.

`O=c1[nH]c2ccc(CC(=S)N3CCOCC3)cc2s1` had a TGI above 100 µM.

On to `O=C(Nc1ccc(Br)cc1)Nc1n[nH]c2ccccc12`, for which the TGI is above 63.4 µM.

`CCOP(=O)(/C=C\n1cnc2c(=O)n(C(C)=O)c(N)nc21)OCC` yielded a TGI above 100 µM.

Regarding `COc1cc(/C=C/C(C)=O)ccc1OP(=O)(O)O`, the TGI is above 100 µM.

Consider `COc1ccc(Cc2nc3cc(C(F)(F)F)ccc3n2CCCN(C)C)cc1`, for which the TGI stood at 39.4 µM.

Compound `O=C(NO)c1coc2ccccc2c1=O` returned a TGI above 100 µM.

As for `O=C1/C(=C/c2ccccc2Cl)N=C(c2ccccc2)N1Cc1ccco1`, the GI50 was 11.6 µM and the TGI is above 100 µM.

For `CCCNC(=S)N/N=C/c1cccc(C)n1`, the TGI is above 100 µM.

The compound `O=C(N/N=C1\CCc2ccccc2C1)N/N=C1\CCc2ccccc2C1` showed a TGI above 10 µM.

For `COc1cccc(/C=N\Nc2ccc([N+](=O)[O-])cn2)c1O`, the GI50 is 1.96 µM and the TGI was determined as 7.49 µM.

`COc1cc(OC)c2c(=O)c(O)c(-c3ccc(OC)c(OC)c3)oc2c1` had a TGI above 100 µM.

Take `CC(=O)O[C@H]1C[C@]2(C)C(CCC3O[C@@]32C)[C@@]2(CC(c3ccoc3)OC2O)[C@@H]1C` (stereo partly specified): the TGI is above 100 µM.

On to `O=C1OCC(C#Cc2ccccc2)=C1Cl`, for which the GI50 is 11.1 µM and the TGI amounted to 29.2 µM.

Take `CC1(C)N=C(N)N=C(N)N1c1ccc(F)c(C(F)(F)F)c1`: the GI50 is 1.01 µM and the TGI was above 100 µM.

For `Nc1cc(-c2ccccc2)ccc1O`, the GI50 was 78.4 µM and the TGI is above 100 µM.

`O=C1c2ccccc2C(=O)N1c1ccc(S(=O)(=O)Nc2ncccn2)cc1`: the GI50 was above 100 µM and the TGI is above 100 µM.

Compound `O=C1OC(c2ccc(O)c(Cl)c2)(c2ccc(O)c(Cl)c2)c2ccc(Br)c3cccc1c23` (tested in a mixture with another compound) gave a TGI of 28.3 µM.

In turn, `CC1(O)CC2C(CC1SCCO)C2(C)C` (stereo unspecified) yielded a TGI above 100 µM.

Compound `COc1ccc(/C=C2\CSC/C(=C\c3ccc(OC)c(OC)c3OC)C2=O)c(OC)c1OC` gave a TGI above 100 µM.

For the compound `C(=C1c2ccccc2-c2ccccc21)c1ccccn1`, the GI50 is 15.3 µM and the TGI is 77.7 µM.

Regarding `CC(=O)Oc1ccc2c(c1)c1c(=O)oc(N(C)C)nc1n2Cc1ccccc1`, the TGI is above 100 µM.

`C=C(C=O)c1c2c(nc3ccccc13)C(=O)c1ccccc1C2=O` had a TGI of 3.1 µM.

Consider `Nc1ccc2c(c1)C(=O)c1c(F)cccc1-2`, for which the TGI was above 100 µM.

Turning to `CCCCCCCCCCCC(=O)OCC1OC(n2cc(F)c(=O)[nH]c2=O)C(N)C(OC(=O)CCCCCCCCCCC)C1O` (stereo unspecified), the TGI was above 100 µM.

Take `O=c1[nH]c(Br)nc2c(Br)c[nH]c12`: the TGI was above 100 µM.
